# Experimental data as given in PubChem BioAssay AID493208 (National Center for Advancing Translational Sciences (NCATS), 2011).
# In all, about 44,000 compounds went through this assay and about 340 (0.77%) were called active. Roughly 5% stayed inconclusive and do not appear here. The call rests on the fitted dose curve; in most records, active means well fitted inhibition curve with a large enough effect; inconclusive means small, poorly fitted or top-dose-only effect; inactive means flat fitted curve, though single readings scatter. The list shows a part of the results.
# Experiment: Acumen qHTS Assay for Inhibitors of the mTORC1 Signaling Pathway in MEF (Tsc2-/-, p53-/-) Cells: Sytravon;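 further: plate controls were DMSO for no effect and rapamycin for full effect; nearly all actives have a fitted effect of over 50% in size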
# Conditions: phospho-rpS6 immunofluorescence/PI, 24 h; series mostly up to 38.3 µM; activity change, negative = inhibition: at the top concentration
# In short: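 Tsc2-/-, p53-/- mouse embryonic fibroblasts (empty-vector line) exposed to compound 24 hrs at 37 C, fixed, immunostained for phospho-rpS6 and counterstained with propidium iodide. Acumen laser scanning gives % positive cells from Alexa 488/PI ratio, thresholded using 7.5 nM rapamycin; PI count gives viability.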
row,Compound,"activity change, negative = inhibition"
1,Cc1cc2c(cc3c(SCc4cccc(F)c4)nnc(C)n32)o1,inactive: -19.7%
2,Cc1cccc(C(=O)N2CCC(N3CCN(Cc4ccc(F)cc4)C(=O)C3=O)CC2)c1,inactive: 0%
3,O=c1c2c3c(sc2n(Cc2ccccc2F)c(=O)n1-c1ccc(Cl)cc1)CCCC3,inactive: -25.2%
4,COC(=O)c1ccc(Cl)cc1NC(=O)NC(C)c1c(-n2cccc2)sc(C)c1C (stereo unspecified),inactive: -1.66%
5,COc1ccc(NC(=O)CCc2nc3cccnc3n2-c2ccccc2)cc1Cl,inactive: -1.31%
6,CNC(=O)C1CCC(Cn2c(=O)c3sccc3n(CC(=O)N3CCC(C)CC3)c2=O)CC1 (stereo unspecified),inactive: -13.2%
7,Cc1ccc(-n2ncc(C(=O)NCc3ccco3)c2C2CCN(C(=O)OC(C)(C)C)CC2)cc1,inactive: -8.39%
8,COC(=O)c1cc(S(=O)(=O)NCC2CCN(Cc3cccc(F)c3)CC2)cn1C,inactive: -3.86%
9,Cn1c(=O)c2c(-c3ccc(Cl)cc3)n(CCc3ccccc3)cc2n(C)c1=O,inactive: -0.512%
10,Cc1ccc2nc(Cl)c3cc(C(=O)N4CCCCC4)sc3c2c1,inactive: 2.27%
11,Cc1cc(C)c(Cn2c(=O)n(CCCC(=O)NCc3ccc4c(c3)OCO4)c(=O)c3sccc32)c(C)c1,inactive: -8.08%
12,Cn1nnc2c(NCc3c(F)cccc3F)ncnc21,inactive: -3.23%
13,COc1ccc(N(C(=O)Cn2nnc3ccccc32)C(C(=O)NCc2ccccc2)c2ccc(F)cc2)cc1 (stereo unspecified),inactive: 1.58%
14,COc1ccc(N2CCN(Cc3nc4c(c(=O)[nH]c(=O)n4C)n3Cc3ccccc3F)CC2)cc1,inactive: -3.49%
15,COc1ccc(CCNC(=O)c2cc(=O)c3cc(C)c(C)cc3o2)cc1OC,inactive: 2.02%
16,Cn1c(=O)c2c(nc(SCC(=O)Nc3ccc(F)c(F)c3)n2Cc2ccccc2F)n(C)c1=O,inactive: -24.2%
17,O=C(NCCc1ccc(Cl)cc1)C1CCN(S(=O)(=O)c2ccc3[nH]ccc3c2)CC1,inactive: 0.225%
18,COc1ccc(CCNC(=O)C(=O)NCC(c2cccs2)S(=O)(=O)c2ccc(F)cc2)cc1 (stereo unspecified),inactive: -3.19%
19,O=C(COCc1cc(-c2ccc3c(c2)OCO3)on1)Nc1cc(Cl)ccc1O,inactive: 1.12%
20,COc1ccc(-c2noc(CNC(=O)COc3cccc(C)c3C)n2)cc1,inactive: -1.25%
21,CCOC(=O)c1c(C)oc2nc(C)nc(NCCCN3CCN(c4cc(C)ccc4C)CC3)c12,inactive: -11.9%
22,CC(C)c1ccc(Nc2c(-c3ccccn3)nc3ccccn23)cc1,inactive: -18.7%
23,COc1ccc(-c2nc(CSCC(=O)NCc3ccccc3Cl)c(C)o2)cc1OC,inactive: -11.8%
24,COc1cc(OC)c(NC(=O)CCc2c(C)nc3c4c(C)cc(C)nc4nn3c2C)cc1Cl,inactive: -16.1%

row,Compound,"activity change, negative = inhibition"
1,CCCCCN1C(C(=O)c2ccccc2)=C(OC(=O)CC)c2ccccc2S1(=O)=O,inactive: -17.6%
2,CC(NC(=O)c1ccc2c(c1)sc1nc(-c3ccc(F)cc3)cn12)C12CC3CC(CC(C3)C1)C2 (stereo unspecified),inactive: -16.7%
3,COc1cccc(/C=C/c2nc(C#N)c(N3CCN(C)CC3)o2)c1,inactive: -1.62%
4,COc1cc(NC(=O)C2CCN(S(=O)(=O)c3c(C)noc3/C=C/c3ccccc3F)CC2)cc(OC)c1OC,inactive: -0.399%
5,Cc1ccc(CCNC(=O)c2ccc(Nc3nc4ccccc4n4nnnc34)cc2)cc1,inactive: 1%
6,Cc1cccc(NC(=O)c2cc3c(=O)n(Cc4cccnc4)ccc3nc2C)c1,inactive: -16.4%
7,N#Cc1cc2c(=O)n3ccccc3nc2n(-c2nnc(SCc3ccccc3Cl)s2)c1=O,inactive: -6.29%
8,CCN(CCCNC(=O)Cn1ncc2c([nH]c3ccc(C)cc32)c1=O)c1ccccc1,inactive: -2.45%
9,CCC(Sc1nc2n[nH]c(C)c2c(=N)n1-c1ccccc1Cl)C(=O)N(CC)CC (stereo unspecified),inactive: 5.77%
10,CC1Cn2c(C(=O)NCc3ccccc3Cl)cc3cccc(c32)S1 (stereo unspecified),inactive: -14.8%
11,CCOC(=O)Cn1c(=O)n(CC2CCCO2)c2nc(-c3cc(OC)ccc3OC)nc(C(N)=O)c21 (stereo unspecified),inactive: 2.46%
12,Cc1ccc(S(=O)(=O)NCCc2nnc3ccc(SCC(=O)Nc4ccc(F)cc4F)nn23)cc1,inactive: -5.8%
13,COc1ccc(CCNC(=O)CCc2c(C)nc3cc(-c4cccc(F)c4)nn3c2C)cc1OC,inactive: 5.71%
14,CCCOc1ccc(C(=O)N(Cc2ccco2)Cc2ccco2)cc1,inactive: -2.33%
15,O=C(NCC(c1cccs1)S(=O)(=O)c1cccs1)c1c(F)cccc1F (stereo unspecified),inactive: -23.3%
16,COc1ccc(OC(=O)c2nc(SCc3ccccc3C)ncc2Cl)cc1,inactive: -12.5%
17,Cc1ccccc1OCC(=O)Nc1ccccc1OCc1cc(=O)n2ccccc2n1,inactive: -6.12%
18,Cc1ccc(CCNC(=O)CCCc2nnc3n(C)c(=O)c4sccc4n23)cc1,inactive: 7.85%
19,COc1cccc(CSc2nc3n(n2)C(CC(C)C)C(C(=O)Nc2ccccc2C)=C(C)N3)c1 (stereo unspecified),inactive: -0.185%
20,COc1ccc(C(=O)Nc2cccc(C(=O)OCc3cc(=O)n4c5c(sc4n3)CCCC5)c2)cc1,inactive: 3.93%
21,Cc1cc(C)c2c(CC(=O)Nc3cc(C(F)(F)F)ccc3Cl)coc2c1,inactive: 2.99%
22,COc1ccccc1-n1c(=O)n(C)c2c(C(N)=O)nc(-c3cccc(OC)c3OC)nc21,inactive: 3.68%
23,O=C(C1CCCN(S(=O)(=O)c2cccc3nsnc23)C1)N1CCN(c2cccc(Cl)c2)CC1 (stereo unspecified),inactive: -1.21%
24,Cc1ccc2nc(-c3ccccn3)c(Nc3ccccc3C)n2c1,inactive: -28.8%

row,Compound,"activity change, negative = inhibition"
1,CCCN1CCc2nc(N3CCN(C)CC3)ncc2C1,inactive: 5.89%
2,CCN(CC)c1nn2c(=O)c(C(=O)NCCc3cccc(C)c3)cnc2s1,inactive: -10.5%
3,CCc1cccc(C)c1NS(=O)(=O)c1ccc2c(c1)CC(C)N2C(=O)C1CC1 (stereo unspecified),inactive: -11.6%
4,COc1ccc(-c2noc(CSc3nc4ccccc4[nH]3)n2)cc1OC,inactive: 8.93%
5,CCN1C(=O)C(O)(c2c[nH]c3ccccc23)c2cc(Br)ccc21 (stereo unspecified),inactive: 7.47%
6,Fc1cccc(CSc2ccc(-c3cccs3)nn2)c1,inactive: -17.8%
7,Cc1cccc(Cn2c(=O)n(-c3ccccc3C)c(=O)c3c2c2cc(C)ccc2n3C)c1,inactive: -0.376%
8,CCC(=O)N1c2ccccc2CC1C(=O)NCc1cc(Br)ccc1OC (stereo unspecified),inactive: 4.03%
9,Cc1ccc2oc3c(c(=O)c2c1)C(c1ccc(O)cc1)N(c1nc(C)c(C)s1)C3=O (stereo unspecified),inactive: 11.3%
10,CCC(=O)Nc1nnc(S(=O)(=O)N2c3ccccc3CC2C)s1 (stereo unspecified),inactive: 5.38%
11,Cc1csc2nc(COC(=O)c3ccc(NC(=O)C(C)Oc4ccccc4)cc3)cc(=O)n12 (stereo unspecified),inactive: -6.25%
12,Cc1ccc(CNc2nc3ccccc3n3cnnc23)cc1,inactive: -6.43%
13,COc1ccc(NC(=O)c2cnc(N3CCCC3)nc2)cc1OC,inactive: 0%
14,CCCC1=Nc2cc(C(=O)N3CCC(C(=O)OCC)CC3)ccc2Sc2ccccc21,inactive: 0.0059%
15,Cc1cccc(NC(=O)C2CCCN2S(=O)(=O)c2ccc3c(c2)n(C)c(=O)c(=O)n3C)c1 (stereo unspecified),inactive: -10.4%
16,Cc1cc(C)c2oc(-c3cccc(NC(=O)c4ccc(-c5cccc([N+](=O)[O-])c5)o4)c3)nc2c1,inactive: -9.6%
17,O=C(CCSCc1cccc(Cl)c1)NCCc1ccc(Cl)cc1,inactive: 5.95%
18,O=C(c1ccccc1)N1CCc2cc(CNS(=O)(=O)c3ccc(Cl)s3)ccc21,inactive: 11.8%
19,COc1ccc(-n2c(SCC(=O)NCc3ccc(F)cc3)nc3c([nH]c4ccccc43)c2=O)cc1,inactive: -0.289%
20,Cc1oc(-c2ccc(Cl)cc2)nc1Cn1c(=O)cc(C)c2c(C)nn(-c3ccccc3)c21,inactive: 0.398%
21,COc1ccccc1CNC(=O)CCCCn1c(=O)c2ccccc2n(Cc2ccccc2F)c1=O,inactive: 0.459%
22,CC(=O)Nc1cccc(NC(=O)Cn2cnc3c(oc4ccccc43)c2=O)c1,inactive: 0.0552%
23,Cn1c(=O)n(C)c2cc(N3CCOCC3)c(NS(=O)(=O)c3cccc(C#N)c3)cc21,inactive: -1.79%
24,Cc1ccc(-c2nc3c4c(-c5ccccc5)c(-c5ccccc5)oc4ncn3n2)cc1,inactive: 9.33%

row,Compound,"activity change, negative = inhibition"
1,Cc1ccc(CCNC(=O)C2CCN(S(=O)(=O)c3ccc4c(ccn4C)c3)CC2)cc1,inactive: 1.59%
2,CCOc1ccc(NC(=O)c2c(C)oc3nc(C)nc(N4CCOCC4)c23)cc1,inactive: -1.7%
3,Cc1ccc(CNC(=O)CSc2nc3ccccc3nc2Cc2ccc(C)cc2)cc1,inactive: 0.656%
4,COc1ccc(NC(=O)CSc2nc(C)cc(C)c2C(=O)Nc2ccccc2OC)cc1,inactive: -5.27%
5,COc1ccc(S(=O)(=O)NCC(c2ccco2)S(=O)(=O)c2cccs2)cc1F (stereo unspecified),inactive: -4.91%
6,Cc1cccc(-c2nc(SCc3cc(=O)c4c(C)cc(C)cc4[nH]3)n[nH]2)c1,inactive: 1.2%
7,COCCN(CCOC)S(=O)(=O)c1ccc(C(=O)Nc2sc3c(c2C(N)=O)CCCC3)cc1,inactive: -3.84%
8,O=C(Cn1ncc2c3ccccc3n(Cc3ccccc3)c2c1=O)NCCc1ccc(Cl)cc1,inactive: 3.1%
9,COc1ccc(S(=O)(=O)N2CCC(c3nc4ccccc4s3)CC2)cc1OC,inactive: -3.03%
10,COc1cccc(NC(=O)Cn2nc(N3CCN(c4ccccc4)CC3)ccc2=O)c1,inactive: 4.12%
11,Cc1ccc(Cl)cc1-n1ncc2c(NCCc3ccccc3)ncnc21,inactive: 6.36%
12,Cc1cccc(CSc2cn(CC(=O)N3CCOCC3)c3ccccc23)c1,inactive: -0.365%
13,CCC(=O)N1CCc2cc(S(=O)(=O)NC(Cc3ccccc3)C(=O)NCc3ccccc3)ccc21 (stereo unspecified),inactive: -15.9%
14,Cc1ccc(OCC(=O)Nc2ccc(OCc3cc(=O)n4ccsc4n3)cc2)cc1C,inactive: 0.448%
15,CCCCNc1nc2c(S(=O)(=O)c3ccc(Br)cc3)nnn2c2ccsc12,inactive: -7.87%
16,Cc1ccc(NC(=O)Cn2c(=O)n(Cc3nc(-c4ccccc4)no3)c(=O)c3ccccc32)c(C)c1,inactive: 0.289%
17,CCC(=O)N1CCc2cc(Br)cc(S(=O)(=O)N3CCCC(C(=O)Nc4ccc(C)c(F)c4)C3)c21 (stereo unspecified),inactive: 0.683%
18,Cc1ccc(Nc2c(-c3ccccn3)nc3ccc(Br)cn23)cc1,inactive: 0.996%
19,Cc1nn(C(C)C(=O)NCc2ccc(OC(C)C)cc2)c(=O)c2c1sc1ccccc12 (stereo unspecified),inactive: -0.389%
20,Cc1ccc(C(=O)N(Cc2ccc(N(C)C)cc2)CC2CCCO2)cc1 (stereo unspecified),inactive: -4.25%
21,COc1ccccc1NC(=O)c1c(-c2ccc(C)cc2)nnc2ccccc12,inactive: 7.55%
22,Cc1ccc2ccc3cc(C(=O)N4CCN(c5ccccc5F)CC4)nc3c2[nH]1,inactive: 5.01%
23,CC(CCc1ccccc1)NC(=O)CSc1n[nH]c(-c2ccccc2)n1 (stereo unspecified),inactive: 4.66%
24,COc1ccc(N2CCN(C(=O)Nc3cn(CC(C)C)c(=O)c4ccccc34)CC2)cc1,inactive: -29%
